# Data taken from PubChem BioAssay AID504832 (National Center for Advancing Translational Sciences (NCATS), 2011).
# About 18,000 (5.8%) of roughly 310,000 compounds were called active. The inconclusive results got no clear call from the source; some entries with a clear call stand among them for comparison. Calls follow the shape of the dose curve; as a rule, active = well fitted inhibition curve with a large enough effect; inconclusive = small, poorly fitted or top-dose-only effect, or another doubt; inactive = no such curve, though single readings can be large or run the other way. No potency is given beside an inconclusive call; the fits are too rough.
# Assay: Primary qHTS for delayed death inhibitors of the malarial parasite plastid, 48 hour incubation
# Conditions: P. falciparum luciferase growth in erythrocytes; series mostly up to 28.7 µM
# Method in brief: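 Luminescence readout; reporter = integrated firefly luciferase in P. falciparum. RBC culture at 2% hematocrit, 0.1% parasitemia final, 37 C/5% CO2; decreased signal taken as growth inhibition.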
# Potency is read from the fitted curve at half-maximal effect; tags tell the direction and shape of the fitted curve.
row,SMILES,Potency
1,CCOc1ccc(C(=O)OCC(=O)Nc2cccc(S(=O)(=O)N3CCCC3)c2)cc1,"inconclusive [inhibitor, partial curve, poor fit]"
2,Cc1ccc(C(=O)COC(=O)C2C3C=CC(C3)C2C(=O)OCC(=O)c2ccc(C)c(C)c2)cc1C (stereo not drawn),"inconclusive [inhibitor, partial curve, poor fit]"
3,Cc1ccc(Sc2cc(C)nc(-c3ccccn3)n2)cc1,"inconclusive [inhibitor, full curve]"
4,O=C(Cn1c(COc2ccccc2)nc2ccccc21)Nc1cc(Cl)cc(Cl)c1,"inconclusive [inhibitor, single point]"
5,O=C(NCc1ccc(Cl)cc1)C(=O)c1cn(CC(=O)N2CCOCC2)c2ccccc12,inactive
6,CC(O)CNc1ccc(-c2nn(C)c(=O)c3ccccc23)cc1[N+](=O)[O-] (stereo not drawn),"inconclusive [inhibitor, single point]"
7,CCCC(=O)Nc1c2c(nn1-c1ccc(OC)cc1)CS(=O)C2 (stereo not drawn),inactive
8,COc1ccc(CN2CCN(CCc3ccccc3)C(CCO)C2)cc1Cn1cncn1 (stereo not drawn),active: 5.22 µM
9,C=CC(=O)NC(C)(C)CCN1CCOCC1,active: 0.928 µM
10,CCOC(=O)N/N=C/c1cc(C)n(-c2cccc3ccccc23)c1C,active: 11.7 µM
11,CC(=O)N(C1=C(N)C(=O)c2ccccc2C1=O)c1ccccc1,"inconclusive [inhibitor, partial curve, poor fit]"
12,O=C1c2cccc3c2[C@@H](CCC3)CN1[C@@H]1CN2CCC1CC2,active: 12 µM
13,COc1ccc(S(=O)(=O)N2CCOCC2)cc1NC(=O)CCOc1ccc(C(C)(C)C)cc1,"inconclusive [inhibitor, single point]"
14,Cc1ccc(Nc2nc(N)c3ccccc3n2)cc1C,"inconclusive [inhibitor, full curve, poor fit]"
15,Cc1ccc(C)c(NC(=O)C2COc3ccccc3O2)c1 (stereo not drawn),"inconclusive [inhibitor, single point]"
16,CCOC(=O)/C=C/C(=O)Nc1ccccc1C(=O)NC1CCCCC1,"inconclusive [inhibitor, single point]"
17,COc1ccccc1-c1nnc(SC(C(=O)c2c[nH]c3ccccc23)c2ccccc2)n1C (stereo not drawn),"inconclusive [inhibitor, single point]"
18,CCn1c(=O)c(=O)[nH]c2cc(C(=O)NC(C)c3ccc(S(N)(=O)=O)cc3)ccc21 (stereo not drawn),"inconclusive [inhibitor, partial curve, poor fit]"
19,Cc1cccc(-n2c(-c3ccco3)nc3ccccc3c2=O)c1C,inactive
20,Cc1ccccc1OC(C)C(=O)Nc1ccc(S(=O)(=O)N2CCCC2)cc1 (stereo not drawn),"inconclusive [inhibitor, single point]"
21,N/C(=N\NC(=O)c1cccc(F)c1)c1cc2ccccc2oc1=O,"inconclusive [inhibitor, full curve, poor fit]"
22,COc1cccc(OCc2nnc(SCC(=O)NCc3ccco3)n2CCc2ccccc2)c1,"inconclusive [inhibitor, single point]"
23,NS(=O)(=O)c1ccc(CCNC(=O)c2cc(-c3ccco3)nc3ccccc23)cc1,"inconclusive [inhibitor, single point]"

row,SMILES,Potency
1,O=C(NCCN1C(=O)S/C(=C\c2cccnc2)C1=O)c1ccc(S(=O)(=O)N2CCCC2)cc1,"inconclusive [inhibitor, partial curve, poor fit]"
2,COc1ccccc1Nc1ccc(NC(=O)c2cccc([N+](=O)[O-])c2C)cc1,"inconclusive [inhibitor, full curve, poor fit]"
3,Cc1cnc(C(=O)Oc2c(C)ccc(C)c2C)cn1,inactive
4,CC(=O)Nc1ccc(S(=O)(=O)NC(C)C(=O)OCCOc2ccc(F)cc2)cc1 (stereo not drawn),"inconclusive [inhibitor, single point]"
5,COc1cccc(NC(=O)Nc2cccn(Cc3ccccc3)c2=O)c1,"inconclusive [inhibitor, single point]"
6,COc1ccc(-n2cc(-c3ccccc3)c3c(N4CC(C)OC(C)C4)ncnc32)cc1 (stereo not drawn),"inconclusive [inhibitor, single point]"
7,NNC(=O)CCN(Cc1ccco1)S(=O)(=O)c1ccc(Cl)cc1,"inconclusive [inhibitor, full curve, poor fit]"
8,O=C(CSc1nc(-c2ccccc2)cc(=O)[nH]1)NCc1ccc2c(c1)OCO2,inactive
9,CNc1nc(Oc2ccc(C(=O)OC)cc2)nc(SC)n1,active: 10.4 µM
10,CCOC(=O)C1=C(C)Nc2[nH]c(=O)[nH]c(=O)c2C1c1cccs1 (stereo not drawn),inactive
11,CC(C)c1ccc(N2C=Nc3ccc(C(C)C)cc3C2)cc1,"inconclusive [inhibitor, single point]"
12,CCOC(=O)C1=C(C)N=c2s/c(=C/c3ccc(OCC(=O)O)cc3)c(=O)n2C1c1ccc(OC)cc1OC (stereo not drawn),active: 0.465 µM
13,COc1ccc(S(=O)(=O)NC(C)C(=O)Nc2ccccc2)cc1Cl (stereo not drawn),"inconclusive [inhibitor, single point]"
14,Cc1nn(CC(=O)OCC(=O)Nc2ccccc2[N+](=O)[O-])c(C)c1[N+](=O)[O-],inactive
15,CN1CCN(c2ccc(Cl)cc2NC(=O)CN2C(=O)NC(C)(c3ccccc3)C2=O)CC1 (stereo not drawn),active: 2.94 µM
16,CC(=O)N1c2ccc(S(=O)(=O)N3CCCC(C(=O)NCc4ccc(Cl)cc4)C3)cc2CC1C (stereo not drawn),"inconclusive [inhibitor, partial curve]"
17,CN(C)C1(CNC(=O)C2CCN(S(=O)(=O)c3cccc(C(F)(F)F)c3)CC2)CCCCC1,"inconclusive [inhibitor, single point]"
18,COc1ccc(OC)c(NC(=O)NNC(=O)CCCOc2ccc(Cl)cc2C)c1,inactive
19,Nc1nc(SCc2ccc(Cl)cc2Cl)n[nH]1,inactive
20,CCOc1ccc(NC(=O)CN(C)Cc2ccc3c(c2)OCO3)cc1S(=O)(=O)N1CCCC1,"inconclusive [inhibitor, single point]"
21,O=C(NCc1nc2ccccc2[nH]1)C1=C[C@@H](c2ccccc2)C[C@@H](OCCCCO)O1,active: 0.0033 µM
22,Cn1c(/C(C#N)=C/c2cccc(O)c2)nc2ccccc21,"inconclusive [inhibitor, single point]"
23,O=C(Cc1nc2ccccc2s1)c1ccc(O)cc1O,"inconclusive [inhibitor, single point]"

row,SMILES,Potency
1,COc1cc(C(=O)COC(=O)c2cc([N+](=O)[O-])ccc2N2CCOCC2)ccc1OC(F)F,"inconclusive [inhibitor, single point]"
2,S=C(Nc1ccc(-c2nc3ccccc3[nH]2)cc1)Nc1cccnc1,"inconclusive [inhibitor, single point]"
3,CC(C)N1CCN(CCCc2ccccc2)CC1CCO (stereo not drawn),inactive
4,Cc1c(CCCN)c2ccccc2n1Cc1ccccc1,"inconclusive [inhibitor, single point]"
5,CC1CCN(C(=S)c2ccc(O)cc2)CC1,"inconclusive [inhibitor, partial curve, poor fit]"
6,CC(C)(C)c1ccc(NC(=O)N2CCCN(c3ccc([N+](=O)[O-])cn3)CC2)cc1,active: 8.28 µM
7,CC(C)N1CCc2c(sc(NC(=O)c3ccc(S(=O)(=O)N(C)CC4CCCO4)cc3)c2C(N)=O)C1 (stereo not drawn),"inconclusive [inhibitor, single point]"
8,COc1ccc(NC(=O)COc2ccc(-n3cnnn3)cc2)cc1OC,inactive
9,CCN(CC)S(=O)(=O)c1ccc(N2CCOCC2)c(NC(=O)C2CCCC2)c1,"inconclusive [inhibitor, single point]"
10,Cc1ccc(C(=O)N(CCN2CCCCC2)CC2CCCN(C3CCCC3)C2)s1 (stereo not drawn),"inconclusive [inhibitor, partial curve, poor fit]"
11,Cc1c(CN(C)C(=O)CSc2nc(-c3ccco3)cc(C(F)(F)F)n2)cnn1C,"inconclusive [inhibitor, single point]"
12,Cc1ccc(C(=O)c2ccccc2C(=O)Nc2ccccc2)cc1,"inconclusive [inhibitor, partial curve, poor fit]"
13,CC(NC(=O)CSc1nc2sc3c(c2c(=O)n1-c1ccccc1)CCCC3)c1ccccc1 (stereo not drawn),active: 11.7 µM
14,Cc1nnc(SC(C)C(=O)Nc2ccc(Cl)cn2)n1Cc1ccccc1 (stereo not drawn),inactive
15,CCOc1cc(S(=O)(=O)N2CCN(CC)CC2)ccc1Cl,inactive
16,O=C(NN=C1CCCCC1)c1ccccc1OCc1ccc(F)cc1,"inconclusive [inhibitor, single point]"
17,O=C(NCc1ccco1)c1cnn2c1NC(c1ccc(Br)cc1)CC2C(F)(F)F (stereo not drawn),"inconclusive [inhibitor, partial curve, poor fit]"
18,Cc1c(C(=O)Nc2ccc3c(c2)OCO3)sc2nc(-c3ccccc3)cn12,active: 13.1 µM
19,C[C@@H](NC(=O)C1(c2ccccc2)CCN(C(=O)OC(C)(C)C)CC1)C(=O)N[C@@H](C(=O)O)c1ccccc1,inactive
20,O=C(Nc1ccccc1-c1ccccc1)NC1CC2CCCC(C1)N2CCc1ccccc1 (stereo not drawn),active: 5.22 µM
21,COc1ccc(NC(=S)NCC2CCN(c3ccc(OC)cc3)C2)cc1 (stereo not drawn),active: 11.7 µM
22,O=C(CCC(=O)Nc1ccc(Br)cc1)N/N=C/c1cc([N+](=O)[O-])ccc1O,"inconclusive [inhibitor, single point]"
